# Test results taken from the supplement of paper PMC3334620.
# In all, about 33,000 sequences were measured (“E-score (-0.5 to 0.5)”: median about -0.032, highest 2% from about 0.36 on). Some of the results follow.
# Target: T1, Sko1 (UniProt Q02100)
# T1 sequence: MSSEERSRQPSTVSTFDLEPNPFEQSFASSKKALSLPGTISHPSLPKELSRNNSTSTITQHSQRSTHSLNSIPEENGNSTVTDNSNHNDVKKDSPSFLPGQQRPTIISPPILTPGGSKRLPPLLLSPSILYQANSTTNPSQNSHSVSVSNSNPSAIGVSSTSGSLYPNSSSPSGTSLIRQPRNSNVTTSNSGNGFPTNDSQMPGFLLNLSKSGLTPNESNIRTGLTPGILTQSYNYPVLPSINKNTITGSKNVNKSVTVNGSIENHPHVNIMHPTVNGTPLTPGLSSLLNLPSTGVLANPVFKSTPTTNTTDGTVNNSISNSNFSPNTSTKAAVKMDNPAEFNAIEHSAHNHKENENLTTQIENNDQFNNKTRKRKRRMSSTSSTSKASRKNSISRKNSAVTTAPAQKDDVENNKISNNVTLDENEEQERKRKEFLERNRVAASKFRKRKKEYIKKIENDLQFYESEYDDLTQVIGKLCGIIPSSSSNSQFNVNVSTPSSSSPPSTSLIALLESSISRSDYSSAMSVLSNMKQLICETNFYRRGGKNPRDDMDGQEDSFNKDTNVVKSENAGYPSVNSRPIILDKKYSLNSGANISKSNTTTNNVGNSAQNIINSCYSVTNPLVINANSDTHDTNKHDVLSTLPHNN
# Assay: PBM E-score (8-mer binding enrichment) (E-score (-0.5 to 0.5)); higher = stronger / more preferred TF binding; most listed sequences are background and not binding sites
# Conditions: protein concentration: 200 nM; construct: GST-full length
# Summary of the method: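 Full-length yeast transcription factors or their DNA-binding domains, GST-tagged and expressed with PURExpress, were applied at about 100-200 nM to universal all-10-mer Agilent arrays. These arrays had been made double-stranded by primer extension on fresh or once-stripped slides. Detection used fluorescent anti-GST, normalisation used masliner, and E-scores for ungapped eight-base words pooled with reverse complements came from the Universal PBM Analysis Suite.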
row,Sequence,PBM E-score
1,AGAAGAGC,-0.0561
2,AAACGTCG,0.238
3,AATTATGT,0.319
4,AGAGACGA,0.0256
5,ACCGTTCC,-0.0907
6,CCGTGAGC,-0.259
7,CACCAGTA,-0.0506
8,GCAGTGGC,-0.0897
9,ATAGGGGC,-0.106
10,TCAACCGA,0.204
11,CAGTATGG,-0.0599
12,AAACTGGA,-0.119
13,CATTACAA,0.223
14,AAACATAT,0.192
15,CGATCGTC,0.103
16,CAGCGTAA,0.213
17,CCACAGTC,-0.363
18,AAGTGCCA,-0.119
19,CGAAAAAC,0.117
20,GGATGCAA,-0.0635
21,GTTGTGGA,0.087
22,CCCGTCCC,-0.344
23,CGAGCATA,-0.0609
24,GTAACTGA,0.126
25,CAAGGCTC,-0.344

row,Sequence,PBM E-score
1,AGGTAGGA,-0.0889
2,GACCTAAA,0.0225
3,GAAAGCAA,0.0289
4,ACACGATA,0.0915
5,TGGTCCAA,-0.135
6,CTAGGGAG,-0.148
7,CCGTAAGA,-0.0187
8,CTAGAACA,-0.0107
9,ACCTTAGC,-0.0228
10,GGGCCCCC,-0.394
11,TGAGCGAA,0.21
12,AACCCCGA,-0.15
13,AGGGTCAT,-0.0117
14,AGCGTACG,0.214
15,CTGGCTGA,-0.185
16,GTGTAGTA,-0.12
17,AACGTCGT,0.247
18,AGTCGCAA,0.0716
19,ATTAATAG,0.178
20,AAGGCCCT,-0.0873
21,CCCACCAA,-0.168
22,CTCAAAGC,-0.0911
23,AGTTGGAA,-0.00844
24,AATCGGTA,0.0551
25,CATTCGCA,0.026

row,Sequence,PBM E-score
1,GAATGTGA,0.118
2,TCACCTAA,0.199
3,GAGAGCTC,-0.268
4,AATCGCGT,0.234
5,CTCCACTA,-0.0474
6,ATCAGTTC,-0.037
7,AGATCCAG,-0.202
8,CGCCAGCA,-0.0811
9,TATATGCA,0.179
10,CAACAACA,0.238
11,GTAGTAGA,-0.00687
12,GCTGGCGA,-0.203
13,CGGAGCAG,-0.167
14,ATGCCTCA,-0.104
15,CAGTGGAC,-0.0326
16,TAGTCGAA,0.03
17,AGTACGAA,0.312
18,ATGCCACC,-0.316
19,CGGCGAGA,-0.106
20,CTACATAC,0.255
21,ATTATAGC,0.0343
22,AATGCCAG,-0.119
23,CCTGCATC,-0.1
24,ACGATACT,0.0296
25,ATGCGTAG,0.3

row,Sequence,PBM E-score
1,GTCGTTCA,0.0986
2,GATTTAAC,0.0539
3,CTACGGCA,-0.0673
4,CCGGCCAA,-0.324
5,CTGTGTTA,-0.0224
6,GGTTTCTA,0.041
7,ATTATCCA,0.103
8,CTGTAGGC,-0.0381
9,TCTCATCA,0.162
10,ATTAATCG,0.108
11,ATCACTTA,0.191
12,GTGGGGCA,-0.102
13,GGCTCTGA,-0.0294
14,CTACACTA,-0.0982
15,GGTGTAAA,-0.152
16,CACGTTAC,0.305
17,CTTACTTA,0.0934
18,ACAGGTCG,-0.23
19,AACCAACC,-0.221
20,ATAGTTAC,0.212
21,AATTGTGG,0.0768
22,ATATACCC,-0.0622
23,ATGAGAAT,0.14
24,CGCGAGCG,-0.0364
25,AAGACACT,-0.0347

row,Sequence,PBM E-score
1,AGGTCTGG,-0.0636
2,CTATACAG,-0.132
3,CGCACGAG,-0.0949
4,AGTTCTTA,-0.0476
5,CGGTGCGC,-0.256
6,CACTGCTC,-0.0831
7,CACGTCTA,0.314
8,GGTTATAC,0.0927
9,AATCTTTC,-0.106
10,GCACCCTA,-0.0839
11,AATCCGTA,-0.103
12,AATCACTG,0.0768
13,GTATGAAC,0.149
14,ATACACTG,0.0799
15,ACACTCGG,0.0335
16,GCTGGGAC,-0.233
17,GACATACC,0.114
18,AGAAAGCT,0.0478
19,GGGACTGA,-0.275
20,CTGGATGA,0.015
21,CCGCTAGA,-0.305
22,AGAAGGTG,-0.178
23,AGTAGGAG,-0.306
24,GGGGTAAA,-0.162
25,AACAGTCC,-0.273

row,Sequence,PBM E-score
1,AGATCGCA,-0.0963
2,ACGGACCT,-0.204
3,GGCGGGCA,-0.129
4,AGGAAGCG,-0.138
5,AGGCATCA,-0.161
6,CGAAGAGA,0.0981
7,ACGCCCAG,-0.0834
8,CCGCACCC,0.0222
9,CGCCGACC,-0.214
10,TCAGATAA,0.208
11,CTGGGTAC,-0.0841
12,AGTGGAAC,-0.175
13,AGGTCACT,-0.0104
14,ACGGTAGG,-0.189
15,AGCGAACC,0.0124
16,TCCGTAGA,-0.15
17,TAAACCTA,0.144
18,CAGGCTTA,-0.117
19,AATCATCC,0.0418
20,AAACCGTA,-0.0212
21,ATTCGCTA,0.0716
22,GATATAGA,-0.0929
23,CATACGGC,-0.0208
24,AGGGCGCC,-0.326
25,CTCATCAA,0.0648

row,Sequence,PBM E-score
1,ATGATCTA,0.31
2,CGATAGCA,-0.0372
3,CGACCCCA,-0.0158
4,CTCAACCA,-0.154
5,ACGGTTGG,-0.0912
6,ACTAGGCT,-0.173
7,CACGCACC,0.115
8,ACCAGTAC,0.0273
9,AGGCTAGA,-0.234
10,CTGTCTGC,-0.25
11,CCTTCTAG,-0.127
12,ACTCTCGA,0.0797
13,AGCTAGGG,-0.206
14,CAGCCCAC,-0.12
15,GCGGGGCC,-0.373
16,ACAGTCCG,-0.182
17,CGTATTAA,0.362
18,ACCCTATG,-0.0956
19,ACTAAGTC,-0.0703
20,CCCGGCCC,-0.424
21,TATAAAGA,0.132
22,ACTATCGC,0.0246
23,AAAGCTGT,-0.0182
24,GCCAATAA,0.0824
25,CTTCTTAC,0.0329

row,Sequence,PBM E-score
1,AATACGAG,0.244
2,AATGAACG,0.205
3,AACCATCC,-0.217
4,AACCTACC,-0.193
5,CAGGCTCC,-0.335
6,AACAAAAT,0.199
7,AGGAGGAC,-0.197
8,CCGCTCTA,-0.087
9,CAATGGGG,-0.157
10,CTGGGGGA,-0.207
11,CGAACACC,-0.175
12,CATAGTTC,0.0165
13,GCATGGCC,-0.276
14,TCGTACGA,0.282
15,GCCTTCCC,-0.258
16,AACCACGG,-0.0682
17,ATATAATC,0.143
18,ATTGGGCC,-0.0649
19,CCCAGCGG,-0.201
20,CGGCATTA,0.0285
21,CGCATTAA,0.134
22,AACCTTGG,0.018
23,CCTCCTGC,-0.139
24,CTGGACAA,-0.13
25,CAACCCAG,-0.271

row,Sequence,PBM E-score
1,ACCACCGA,-0.228
2,CGACAAAA,0.231
3,GGTTTTGA,0.0821
4,GGTTCAGA,-0.119
5,AGTGCGAT,-0.0258
6,TCTGCCCA,-0.129
7,TCCAGAGA,-0.144
8,CCGATACC,-0.114
9,TCAATAAA,0.123
10,AGAGGACC,-0.3
11,CTTTTGGA,-0.0608
12,CCCTCACA,-0.176
13,ACCATCTC,-0.122
14,ATTCAGGA,-0.00648
15,CCATATGA,0.139
16,ATAGAGGC,-0.174
17,AAAGAACT,-0.0725
18,GCATGGTA,0.0146
19,CTTCACGA,-0.118
